{"source": "PubChem BioAssay AID2675", "about": "(National Center for Advancing Translational Sciences (NCATS), 2010)", "note": "Hit rate of the full screen: of about 280,000 compounds, about 100 (0.036%) were called active. The shares of active, inactive and inconclusive entries below differ from those in the screen. The call rests on the fitted dose curve; in most records, active means well fitted inhibition curve with a large enough effect in the signal ratio, with a control signal flat (not every such curve was filed as active); inconclusive means small, poorly fitted or top-dose-only effect, or effect the other way, or a change in a side signal; inactive means no such curve, though single readings can be large or run the other way; the % refers to the signal ratio. Potencies beside an inconclusive call are fits to weak or partial responses and may not hold up. “Side channel” marks fits to a control or component signal instead of the main read-out. Potency means the concentration at half of the fitted maximal effect; tags describe the fitted curve by direction and shape or compound fluorescence and quenching.", "data": [{"biological_target": "Muscleblind-like protein 1 (Homo sapiens) (UniProt Q9NR56)", "sequence (Q9NR56 whole entry, looked up)": "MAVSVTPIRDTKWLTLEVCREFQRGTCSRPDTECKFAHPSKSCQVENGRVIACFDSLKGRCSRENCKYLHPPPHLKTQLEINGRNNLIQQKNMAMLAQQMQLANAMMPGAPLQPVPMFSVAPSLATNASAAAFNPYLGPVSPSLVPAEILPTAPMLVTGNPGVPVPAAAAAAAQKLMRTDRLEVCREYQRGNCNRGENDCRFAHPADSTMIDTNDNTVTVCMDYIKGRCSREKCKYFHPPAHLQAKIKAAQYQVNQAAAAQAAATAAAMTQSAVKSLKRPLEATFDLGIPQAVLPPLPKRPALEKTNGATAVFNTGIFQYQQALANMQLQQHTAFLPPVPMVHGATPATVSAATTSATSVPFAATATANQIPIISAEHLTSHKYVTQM", "test": "qHTS Assay for Inhibitors of MBNL1-poly(CUG) RNA binding", "conditions": "TR-FRET MBNL1-His/biotin-(CUG)12 binding, 665/545 ratio; series mostly up to 57.5 µM", "how_it_was_run": "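His-tagged MBNL1 binding to biotinylated (CUG)12 RNA was measured by TR-FRET using terbium anti-His antibody (0.055 ng/ul final) and streptavidin-XL665 (5 nM final). Compounds were titrated 92 nM to 58 uM; 60 min at room temperature.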", "values": [{"smiles": "c1ccc(-c2cnnc(N3CCOCC3)n2)cc1", "Potency": "inconclusive: 28.2 µM [quencher, side channel, partial curve]"}, {"smiles": "CC(=O)Nc1cc(C(=O)NCc2ccco2)ccc1Sc1ccc(F)cc1", "Potency": "inconclusive: 0.316 µM [fluorescent, side channel, partial curve]"}, {"smiles": "COc1cc(/C=C/c2cccc[n+]2C)ccc1OCC(=O)Nc1cccc(Cl)c1", "Potency": "inconclusive: 8.91 µM [quencher, side channel, partial curve]"}, {"smiles": "CCN(CC)CCCN(Cc1cc2cc3c(cc2[nH]c1=O)OCO3)C(=O)Nc1ccccc1OC", "Potency": "inactive"}, {"smiles": "COc1cccc(/C=C2\\SC(=S)N(CCC(=O)NC3C=CS(=O)(=O)C3)C2=O)c1", "note": "(stereo not drawn)", "Potency": "inconclusive: 8.91 µM [quencher, side channel, partial curve]"}, {"smiles": "CC(C)(C)NC(=O)CSc1nnc(-c2ccccc2)c(-c2ccccc2)n1", "Potency": "inconclusive: 35.5 µM [quencher, side channel, single point]"}, {"smiles": "CC(C)c1ccc(/C=C/c2ccc(=O)n(C)n2)cc1", "Potency": "inconclusive: 14.1 µM [quencher, side channel, partial curve]"}, {"smiles": "CCN(CC)c1ccc(/C=N/NC(=S)NCc2ccccc2)cc1", "Potency": "inactive"}, {"smiles": "COc1ccc(CCNC(=O)c2cc(C)oc2C)cc1", "Potency": "inactive"}, {"smiles": "Cc1ccccc1C(=O)N1CCN(c2ccc([N+](=O)[O-])c(N3CCOCC3)c2)CC1", "Potency": "inconclusive: 25.1 µM [quencher, side channel, partial curve]"}, {"smiles": "Cc1ccc(C)n1Cc1ccc(C(=O)O)cc1", "Potency": "inactive"}, {"smiles": "CCn1c(SCC(=O)Nc2ccc(Cl)cc2)nc2nc3c(cc2c1=O)CCCC3", "Potency": "inconclusive: 0.0112 µM [fluorescent, side channel, full curve]"}, {"smiles": "COC(=O)c1nnn(CC(=O)NC(=O)Nc2cccc(C)c2C)c1C(=O)OC", "Potency": "inactive"}, {"smiles": "COc1ccc(CCNC(=O)Nc2ccc([N+](=O)[O-])cc2)cc1OC", "Potency": "inconclusive: 17.8 µM [quencher, side channel, partial curve]"}, {"smiles": "Cc1cc(Br)ccc1N=C1C(=O)Nc2ccccc21", "Potency": "inconclusive: 12.6 µM [quencher, side channel, partial curve]"}, {"smiles": "C=CCn1c(=NC(=O)c2sc3ccccc3c2Cl)sc2cc(S(N)(=O)=O)ccc21", "Potency": "inconclusive: 11.2 µM [fluorescent, side channel, partial curve]"}, {"smiles": "O=C(/C=C/c1ccc(F)cc1)N1CC[C@@]2(O)CCCC[C@H]2C1", "Potency": "inconclusive: 39.8 µM [quencher, side channel, single point]"}, {"smiles": "Cc1ccc(Nc2c([N+](=O)[O-])ccc3c2=NC2(CCCCC2)N=3)cc1", "Potency": "inconclusive: 2.82 µM [quencher, side channel, full curve]"}, {"smiles": "COc1ccc(/C=C(\\C#N)C(=O)OCCNC(=O)c2ccncc2)cc1", "Potency": "inconclusive: 20 µM [quencher, side channel, partial curve]"}, {"smiles": "O=C(Oc1ccc(Br)cc1C(=S)N1CCOCC1)c1ccc(F)cc1", "Potency": "inactive"}, {"smiles": "Nc1cccc(NC(=O)c2cccs2)c1", "Potency": "inactive"}, {"smiles": "CN(C)/C=C/C(=O)c1cnc(-c2ccc(Cl)cc2)s1", "Potency": "inconclusive: 28.2 µM [quencher, partial curve]"}, {"smiles": "O=C1N=C(N2C=CC(=C3C=CNC=C3)C=C2)/C(=C/N=NC(=O)c2ccccc2)S1", "Potency": "inconclusive: 3.98 µM [quencher, full curve]"}, {"smiles": "COCCCN1C(=O)c2ccc(C(=O)NCCc3ccccc3)cc2C1=O", "Potency": "inconclusive: 14.1 µM [quencher, side channel, partial curve]"}, {"smiles": "CCNC1=C(Cl)C(=O)c2ccccc2C1=O", "Potency": "inconclusive: 7.94 µM [quencher, side channel, partial curve]"}, {"smiles": "CCn1ncc(Br)c1C(=O)Nc1ccc(F)c([N+](=O)[O-])c1", "Potency": "inconclusive: 7.08 µM [quencher, side channel, full curve, poor fit]"}, {"smiles": "S=c1[nH]nc(-c2ccco2)n1/N=C/C=C/c1ccco1", "Potency": "inconclusive: 10 µM [quencher, side channel, partial curve]"}, {"smiles": "O=C1NN(c2cccc(Br)c2)C(=O)/C1=C/c1cccs1", "Potency": "inactive"}, {"smiles": "CN(C)S(=O)(=O)c1cccc2c1C(=O)c1ccccc1C2=O", "Potency": "inconclusive: 4.47 µM [quencher, side channel, partial curve]"}, {"smiles": "COc1ccc(C2=NS(=O)(=O)N(C)C(C(=O)N3CCCCC3C)=C2)cc1", "note": "(stereo not drawn)", "Potency": "inconclusive: 14.1 µM [quencher, side channel, partial curve]"}, {"smiles": "Cc1n[nH]c(=O)c2c(NC(=O)CSc3nc4ccccc4c(=O)n3CCCO)oc(C)c12", "Potency": "inconclusive: 28.2 µM [quencher, side channel, partial curve]"}, {"smiles": "C=CCNc1nc2ccccc2nc1NS(=O)(=O)c1ccc(Br)cc1", "Potency": "inactive"}, {"smiles": "Cc1ccc2c(c1)N(CC(=O)NCCCN1CCCC1)C(=O)CO2", "Potency": "inactive"}, {"smiles": "Cc1ccc(Cn2nc(C)c(NC(=O)CCCn3nc([N+](=O)[O-])c(Cl)c3C)c2C)cc1", "Potency": "inconclusive: 20 µM [quencher, side channel, single point]"}, {"smiles": "CN(C)S(=O)(=O)N1CCN(c2cc(Cl)ccc2Cl)CC1", "Potency": "inactive"}, {"smiles": "CC1(C(=O)O)CC(C)(C(=O)O)CC(C)(C(=O)O)C1", "note": "(stereo not drawn)", "Potency": "inactive"}, {"smiles": "CCCN(Cc1nnc(-c2ccccc2Cl)o1)C(=O)c1cc([N+](=O)[O-])cc([N+](=O)[O-])c1", "Potency": "inconclusive: 11.2 µM [quencher, side channel, partial curve]"}, {"smiles": "O=[N+]([O-])c1ccc2nc(NS(=O)(=O)c3ccc(Cl)cc3)sc2c1", "Potency": "inconclusive: 3.16 µM [quencher, side channel, partial curve]"}, {"smiles": "O=c1oc2ccccc2cc1-c1ccc(O)cc1O", "Potency": "inconclusive: 8.91 µM [quencher, side channel, partial curve]"}, {"smiles": "O=C(Cc1ccccc1[N+](=O)[O-])NNC(=O)Nc1ccc2c(c1)OCO2", "Potency": "inconclusive: 39.8 µM [quencher, single point]"}, {"smiles": "CC(=O)NS(=O)(=O)c1ccc(Nc2ccc([N+](=O)[O-])c3nonc23)cc1", "Potency": "inconclusive: 4.47 µM [quencher, side channel, full curve]"}, {"smiles": "Oc1c(Cl)cc(Cl)c2c1NCCC2", "Potency": "inactive"}, {"smiles": "O=C(CSc1n[nH]c(-c2ccccn2)n1)Nc1ccccc1", "Potency": "inactive"}, {"smiles": "COc1cccc2sc(NNC(=O)COc3ccccc3)nc12", "Potency": "inactive"}, {"smiles": "COC(=O)C1=C(C)NC(C)=C([N+](=O)[O-])C1c1ccccc1C(F)(F)F", "note": "(stereo not drawn)", "Potency": "inconclusive: 25.1 µM [quencher, side channel, partial curve]"}, {"smiles": "COc1cccc(C(=O)Nc2ccc(C(=O)c3ccncc3)cc2)c1", "Potency": "inconclusive: 12.6 µM [quencher, side channel, partial curve]"}, {"smiles": "C/C(CCc1oc2c(Br)cc(Br)cc2c1-c1ccc(C)o1)=N\\O", "Potency": "inconclusive: 7.08 µM [quencher, side channel, single point]"}, {"smiles": "O=C(NC1CCCC1)C(c1ccc(Cl)cc1)N1CCN(C2CCCCC2)CC1", "note": "(stereo not drawn)", "Potency": "inactive"}, {"smiles": "COC(=O)c1sc(NC(=O)c2ccc([N+](=O)[O-])o2)c(C#N)c1C", "Potency": "inconclusive: 5.01 µM [quencher, side channel, partial curve]"}, {"smiles": "Cn1c(/C=N/NC(=O)c2ccccc2Br)nc2ccccc21", "Potency": "inactive"}, {"smiles": "COCC(C)NC(=O)c1cccc([N+](=O)[O-])c1", "note": "(stereo not drawn)", "Potency": "inconclusive: 25.1 µM [quencher, side channel, single point]"}, {"smiles": "CCOC(=O)COc1cccc2c(=O)n(CC(=O)NCc3ccccc3)ccc12", "Potency": "inactive"}, {"smiles": "C=CCN1C=C2C(=O)C(C)(OC(=O)c3cccs3)C(=O)C=C2C=C1CCCC(=O)OC", "note": "(stereo not drawn)", "Potency": "inconclusive: 15.8 µM [quencher, side channel, partial curve]"}, {"smiles": "c1ccc(N=P(c2nc3ccccc3o2)(N2CCOCC2)N2CCOCC2)cc1", "Potency": "inconclusive: 35.5 µM [quencher, side channel, single point]"}, {"smiles": "O=C(O)c1ccc(-n2c(/C=C/c3ccccc3)nc3ccccc3c2=O)cc1", "Potency": "inconclusive: 28.2 µM [quencher, side channel, partial curve]"}, {"smiles": "CCN(Cc1ccncc1)Cc1nc(-c2ccc(C(=O)OC)cc2)no1", "Potency": "inconclusive: 14.1 µM [quencher, partial curve]"}, {"smiles": "O=C(CSc1nc2ccccc2s1)N/N=C/c1ccc(C(=O)O)cc1", "Potency": "inconclusive: 5.62 µM [fluorescent, side channel, single point]"}, {"smiles": "N#Cc1cc(-c2ccccc2)c[nH]c1=O", "Potency": "inconclusive: 11.2 µM [quencher, side channel, partial curve, poor fit]"}, {"smiles": "CCCN(CCC)CC(O)COc1ccc([N+](=O)[O-])cc1", "note": "(stereo not drawn)", "Potency": "inconclusive: 20 µM [quencher, side channel, partial curve]"}, {"smiles": "Cn1cccc1/C=C1\\CCC/C(=C\\c2cccn2C)C1=O", "Potency": "inconclusive: 28.2 µM [quencher, side channel, partial curve]"}, {"smiles": "CCN1C(=O)/C(=C\\C=C2/C=CC=CN2CC)SC1=S", "Potency": "inconclusive: 25.1 µM [quencher, side channel, partial curve]"}, {"smiles": "Cc1cc(=O)[nH]c(SCC2(O)C3CC4CC(C3)CC2C4)n1", "note": "(stereo not drawn)", "Potency": "inconclusive: 3.16 µM [quencher, side channel, partial curve]"}, {"smiles": "CN(C)c1ccc(NC2=C([N+](=O)[O-])CS(=O)(=O)C2)cc1", "Potency": "inconclusive: 22.4 µM [quencher, side channel, single point]"}]}]}
